In PubChem BioAssay AID686978 (National Center for Advancing Translational Sciences (NCATS), 2013):
Out of some 420,000 compounds screened, about 64,000 (15%) were called active. Inconclusive means that the source gave no clear call. Such entries were picked first, then a sample of the others. Calls follow the shape of the dose curve; as a rule, active = well fitted inhibition curve with a large enough effect; inconclusive = small, poorly fitted or top-dose-only effect; inactive = flat fitted curve, though single readings scatter. No potency is given beside an inconclusive call; the fits are too rough.

Assay: qHTS for Inhibitors of human tyrosyl-DNA phosphodiesterase 1 (TDP1): qHTS in cells in absence of CPT; also: nearly all actives have a fitted effect of over 55% in size
Settings: DT40 Tdp1-/- hTDP1 cells, no CPT, ATP luminescence, 48 h; activity change, negative = growth inhibition: at 46.2 µM (top of the series) unless noted
How it was run: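 Growth kinetics read by CellTiter-Glo luminescence after ≥48 hr at 37 °C. Cells: DT40 Tdp1-/- stably carrying human TDP1, 400 per well, compound exposure in the absence of CPT (DMSO vehicle).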
% is scaled to controls: 0 for no effect and ±100 for the full control effect; potency is read from the fitted curve at half-maximal effect; tags tell the direction and shape of the fitted curve.

Structure (SMILES)	activity change, negative = growth inhibition	Potency
CCOC(=O)c1cc(-c2ccccc2)n(-c2cccc(C(=O)Nc3cccc(SC)c3)c2)c1C	inactive: -9.51%	
Cc1ccc(-n2nc3c(=O)n(CCCC(=O)NC4CCC(C)CC4)nc(C)c3c2C)cc1 (centres undefined)		inconclusive [inhibitor, single point]
COC(=O)[C@]12CCCCC=C1N(Cc1cccc3ccccc13)C(=O)[C@H](CC(=O)N1CCOCC1)C2		inconclusive [inhibitor, single point]
CNCC(O)CN1CCN(c2ccccc2OC)CC1 (centres undefined)	inactive: -16%	
CCN(CC(=O)Nc1c(F)cccc1F)C(=O)c1cc(-c2cccs2)nn1-c1ccccc1		active: 18.4 µM
CN(Cc1ccccc1)CC1C2CCC(C2)C1O (centres undefined)	inactive: -5.73%	
CC(C)N1C(=O)CCC1C(=O)NCc1cccs1 (centres undefined)	inactive: 5.36%	
Cc1ccc(-c2cc(=O)[nH]c(NCc3ccccc3)n2)cc1		inconclusive [inhibitor, partial curve]
COc1cc2c(cc1OC)CN(C(=O)c1ccc(Cl)c(S(=O)(=O)N3CCCC3)c1)CC2		inconclusive [inhibitor, single point]
CCOc1cccc(-c2nnc3sc(COc4ccc(Cl)cc4)nn23)c1		inconclusive [inhibitor, single point]
COc1ccc(CCNC(=O)CCn2c(=O)oc3ccccc32)cc1OC		inconclusive [inhibitor, single point]
COc1ccc(N2CCN(C(=O)COc3cccc4ccccc34)CC2)cc1		inconclusive [inhibitor, single point]
CC[n+]1c(/C=C(/C)SC)sc2ccccc21		active: 5.17 µM
CSCC[C@H](NC(=O)[C@H](Cc1ccccc1)n1c(=O)[nH]c2ccccc2c1=O)C(=O)N[C@@H](Cc1ccccc1)C(=O)O	inactive: 1.98%	
CC1(C)CC1C(=O)Nc1ccc([N+](=O)[O-])cc1Br (centres undefined)		inconclusive [inhibitor, single point]
O=C(Nc1ccc(CN2CCOCC2)cc1)c1ccc(Br)cc1	inactive: 0.939%	
O=C(OCC(=O)N(Cc1ccccc1)C1CCS(=O)(=O)C1)c1cc2c(s1)CCCC2 (centres undefined)		inconclusive [inhibitor, single point]
O=C(NCC(c1ccco1)N1CCc2ccccc2C1)c1c(F)cccc1F (centres undefined)		inconclusive [inhibitor, single point]
O=C(C[n+]1cc(-c2ccccc2)n2c1CCC2)Nc1nc(-c2ccccc2)cs1		active: 23.1 µM
O=C(Nc1ccccc1)OCC1CCCN2CCCCC12 (centres undefined)	inactive: 9.07%	
Cn1c(SCC(=O)NCCc2ccccc2)nnc1C1CCCCC1		inconclusive [inhibitor, single point]
CCOC(=S)SSC(=S)OCC	inactive: -13.4%	
O=C(Nc1ccccc1-c1nnc(SCc2ccc(Cl)cc2Cl)o1)c1ccccc1		inconclusive [inhibitor, single point]

Structure (SMILES)	activity change, negative = growth inhibition	Potency
CCN(CC(=O)Nc1cc(C)nn1-c1nc(C)cc(C)n1)Cc1ccccc1		inconclusive [inhibitor, single point]
Cc1ccc2cc3c(=O)n(C)cc(C=O)c3nc2c1	inactive: 4.97%	
CSc1cccc(NC(=O)CN(c2cccc(C)c2)S(C)(=O)=O)c1		inconclusive [inhibitor, single point]
COc1ccc(CCC(=O)NCCc2csc(-c3ccc(F)cc3)n2)cc1		inconclusive [inhibitor, single point]
O=C(CCc1ccccc1)Nc1ncc([N+](=O)[O-])s1		inconclusive [inhibitor, single point]
CCOC(=O)C1=C(C)NC2=C(C(=O)CC(c3ccc(OC)c(OC)c3)C2)C1c1ccc(C)o1 (centres undefined)		inconclusive [inhibitor, single point]
Cc1ccc(C(=O)c2c(NC(=O)c3ccccc3C)sc(C)c2C)cc1		inconclusive [inhibitor, single point]
O=C(c1cccs1)N1C[C@@H](n2cc(-c3ccc(F)cc3)nn2)[C@H](O)C[C@@H]1c1ccc(Cl)cc1		active: 23.1 µM
CCCc1nc(SCC(=O)Nc2ccccc2)c2c(=O)n(C)c(=O)n(C)c2n1		inconclusive [inhibitor, partial curve]
COc1ccc(OCCNC(=O)c2cc(C3CC3)nc3c2cnn3C(C)C)cc1		inconclusive [inhibitor, full curve, poor fit]
CCN(CC)c1ccc(C=NNc2ccc([N+](=O)[O-])cn2)cc1		inconclusive [inhibitor, single point]
CN(Cc1ccccc1)C(=O)c1nc2ccccn2c1CN1CCCC1c1nccs1 (centres undefined)		inconclusive [inhibitor, single point]
Cc1cc(-c2cc(N)n(-c3ccccc3)n2)c(C)n1C1CCCC1		inconclusive [inhibitor, single point]
CC1=C(C(=O)N(C(C)C)C(C)C)CC(CC(=O)NC2CC2)C(=O)N1CCC1=CCCCC1 (centres undefined)		inconclusive [inhibitor, single point]
COc1ccc(CCNc2nc(C)cc(=O)[nH]2)cc1OC	inactive: 7.5%	
CCCCNC(=O)C1CCCN(S(=O)(=O)c2c(C)noc2/C=C/c2cccs2)C1 (centres undefined)		active: 13 µM
CN(C)S(=O)(=O)c1cc(NC(=O)COC(=O)c2ccc3c(c2)OCO3)ccc1Cl	inactive: -28.7%	
Cn1c(=O)c2c(SCC(=O)Nc3cccc(F)c3)nc(-c3ccco3)nc2n(C)c1=O		inconclusive [inhibitor, partial curve]
N#CCSc1nnc(C2CCCCC2)n1-c1ccccc1		inconclusive [inhibitor, partial curve]
Cc1nc(CS(=O)c2ccc(Cl)cc2)cc(N2CCOCC2)n1 (centres undefined)		inconclusive [inhibitor, full curve, poor fit]
CCN(CC)C(=O)C1=C(C)N(Cc2ccc(C(C)(C)C)cc2)C(=O)C(CC(=O)NCCCCc2ccccc2)C1 (centres undefined)		inconclusive [inhibitor, single point]
c1ccc2c(-c3nc(C4CCCCC4)no3)cc(-c3ccncc3)nc2c1		active: 23.1 µM
O=C(CN1C(=O)/C(=C2\SC(=S)N(C3CCS(=O)(=O)C3)C2=O)c2ccccc21)Nc1ccc(F)cc1 (centres undefined)		inconclusive [inhibitor, partial curve]

Structure (SMILES)	activity change, negative = growth inhibition	Potency
COc1cc(NC(=O)CC2C(=O)N(c3ccccc3)C(=O)N2Cc2ccc(F)cc2)cc(OC)c1 (centres undefined)		active: 14.6 µM
C[C@@H]1CN([C@H](C)CO)C(=O)Cc2cc(NC(=O)Nc3ccccc3)ccc2O[C@@H]1CN(C)C(=O)Nc1ccc2c(c1)OCO2	inactive: -4.34%	
CCCOc1ccc(C2C(=O)N(C3CCCCCC3)CC(=O)N2Cc2ccccc2OC)cc1OC (centres undefined)		active: 16.4 µM
O=C(Cn1ncc2c([nH]c3ccccc32)c1=O)NCCCN1CCN(c2ccc(F)cc2)CC1		inconclusive [inhibitor, single point]
O=C(NCc1ccncc1)C(=O)NCC(c1ccco1)N1CCN(c2ccc(F)cc2)CC1 (centres undefined)		inconclusive [inhibitor, single point]
COc1ccc(CN(C)CC(O)COC(c2ccc(OC)cc2)c2ccc(OC)cc2)cc1 (centres undefined)		active: 23.1 µM
CCCCCn1c(CCNC(=O)c2cccs2)nc2ccccc21		inconclusive [inhibitor, single point]
Cc1ccc(S(=O)(=O)Nc2ccccc2C(=O)Nc2nc(-c3ccc(F)cc3)cs2)cc1		active: 2.59 µM
COc1cccc(NC(=O)CN(C)C(=O)c2cc(-c3ccccc3)nc3ccc(C)cc23)c1		active: 10.3 µM
N#C/C(=C(/O)CCl)c1nc(-c2ccccc2)cs1		active: 14.6 µM
Cc1c(OCC(=O)N(C)C)ccc2c(-c3ccccc3)cc(=O)oc12		inconclusive [inhibitor, single point]
COc1ccc(NC(=O)CN(C)C(=O)CNC(=O)C2CCCCC2)cc1	inactive: 1.24%	
COc1cccc(N2CCN(C(=O)CCC(=O)N3CCOc4ccc(C)cc43)CC2)c1		inconclusive [inhibitor, single point]
COc1ccc(C(=O)C2CCCN(Cc3ccc4nonc4c3)C2)cc1OC (centres undefined)	inactive: -18%	
CC[n+]1ccc(C)c2cc(SC(F)(F)F)ccc21		inconclusive [inhibitor, single point]
Cc1cccc(CNc2ccnc(-c3ccc(C(=O)N(C)C)cc3)n2)c1		inconclusive [inhibitor, partial curve]
O=C(CC(C(=O)O)c1c(F)cccc1Cl)c1ccc(Cl)cc1 (centres undefined)	inactive: 23.3%	
O=C(CCl)Nc1cccc(Oc2cnccn2)c1		active: 9.2 µM
COc1ccc(C(C#N)N2CCC(c3ccccc3)=N2)cc1 (centres undefined)		inconclusive [inhibitor, single point]
CCOC(=O)C1=CN(Cc2ccco2)S(=O)(=O)NC1c1ccc(Br)cc1F (centres undefined)		inconclusive [inhibitor, single point]
CCOc1ccccc1/C=N/Nc1nc2ccccc2o1		inconclusive [inhibitor, partial curve]
O=C(CCc1ccccc1)NCC(=O)N/N=C/c1ccc(O)cc1O		inconclusive [inhibitor, single point]
C=CCNC(=O)/C(=C\C=C\c1ccccc1)NC(=O)c1ccc(OCCCC)cc1		inconclusive [inhibitor, single point]
